This passage reports cytotoxicity results from patent publication US20240307342A1, “Treatment of the adverse cardiovascular effects of cannabinoids” (GreenStone Biosciences, Inc., priority 2022, published 2024).

The data set deals with human embryonic stem cell-derived cardiomyocytes (H7 hESC-CMs). Put plainly: cytotoxicity in cardiomyocytes.

For the compound `CCCCCc1cc(O)c2c(c1)OC(C)(C)[C@@H]1CCC(C)=C[C@@H]21` [Δ^9-THC, (6aR,10aR)-6,6,9-trimethyl-3-pentyl-6a,7,8,10a-tetrahydro-6H-benzo[c]chromen-1-ol], the cytotoxicity entry is reported as “without any adverse effect”.
